From the supplement of paper PMC4967469
IC50 is the fitted dose that halves viability relative to control wells, and lower means more sensitive; a fit beyond the top or the lowest dose is shown as a bound at that dose. AUC is the area under the same curve over the 256-fold range up to the top dose, as a fraction: 1 means no effect, lower means more sensitive. The top dose, if marked as inferred, comes from the curve model; the source does not state it.

Key:
[1] = compound: CCN(CC)CCCCNc1ncc2cc(-c3cc(OC)cc(OC)c3)c(NC(=O)NC(C)(C)C)nc2n1 [PD-173074]; experiment: Viability of human cancer cell lines after 72 h of drug (GDSC screen); details: top dose 2 µM; top dose inferred
Procedure: (§1)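 Human cancer cell lines in 384-well plates, medium with 10% serum, drug for 72 h over a 256-fold dose range (nine 2-fold or five 4-fold steps up to the top dose). Adherent lines were fixed and stained with the nucleic acid dye Syto60, suspension lines read with resazurin; signal relative to control wells, capped at 0 and 100%. One two-parameter sigmoid per drug and line, fitted in a mixed model over all curves with the slope shared within a line.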

[2] = compound: CN(C)CCOc1ccc(-c2nc(-c3ccncc3)c(-c3ccc4c(c3)CC/C4=N\O)[nH]2)cc1 [SB590885]; experiment: as above; details: top dose 5 µM; top dose inferred
Procedure: as §1

Row | Cell Line | AUC [1] | IC50 [1] | AUC [2] | IC50 [2]
1 | HDQ-P1 (breast, adherent) | 0.985 | > 2000 nM | 0.982 | > 5000 nM
2 | HEC-1 (endometrium, adherent) | 0.978 | > 2000 nM | 0.974 | > 5000 nM
3 | HGC-27 (stomach, adherent) | 0.972 | > 2000 nM | 0.964 | > 5000 nM
4 | HLE (liver, adherent) | 0.975 | > 2000 nM | 0.971 | > 5000 nM
5 | HN (head and neck, adherent) | 0.975 | > 2000 nM | 0.981 | > 5000 nM
6 | HO-1-u-1 (head and neck, adherent) | 0.988 | > 2000 nM | 0.988 | > 5000 nM
7 | HOS (osteosarcoma, adherent) | 0.953 | > 2000 nM | 0.958 | > 5000 nM
8 | HSC-2 (head and neck, adherent) | 0.986 | > 2000 nM | 0.983 | > 5000 nM
9 | HT55 (large intestine, adherent) | 0.99 | > 2000 nM | 0.99 | > 5000 nM
10 | HT-3 (cervix, adherent) | 0.987 | > 2000 nM | 0.987 | > 5000 nM
11 | HT-115 (large intestine, adherent) | 0.991 | > 2000 nM | 0.991 | > 5000 nM
12 | HT-1197 (bladder, adherent) | 0.985 | > 2000 nM | 0.985 | > 5000 nM
13 | HT-1376 (bladder, adherent) | 0.985 | > 2000 nM | 0.985 | > 5000 nM
14 | HeLa (cervix, adherent) | 0.945 | > 2000 nM | 0.989 | > 5000 nM
15 | Hep 3B2_1-7 (liver, adherent) | 0.604 | 241 nM | 0.875 | 4900 nM
16 | Hey (ovary, adherent) | 0.985 | > 2000 nM | 0.857 | 3720 nM
17 | Hs633T (fibrosarcoma, adherent) | 0.987 | > 2000 nM | 0.939 | > 5000 nM
18 | Hs683 (glioma, adherent) | 0.957 | > 2000 nM | 0.979 | > 5000 nM
19 | Hs746T (stomach, adherent) | 0.979 | > 2000 nM | 0.974 | > 5000 nM
20 | Hs766T (pancreas, adherent) | 0.967 | > 2000 nM | 0.978 | > 5000 nM
21 | Hs939-T (melanoma, adherent) | 0.984 | > 2000 nM | 0.862 | 4940 nM
22 | Hs-578-T (breast, adherent) | 0.877 | > 2000 nM | 0.987 | > 5000 nM
23 | HuCCT1 (biliary tract, adherent) | 0.973 | > 2000 nM | 0.973 | > 5000 nM
24 | HuH-7 (liver, adherent) | 0.82 | 1150 nM | 0.864 | 4360 nM
25 | HuO9 (osteosarcoma, adherent) | 0.887 | > 2000 nM | 0.951 | > 5000 nM

Row | Cell Line | AUC [1] | IC50 [1] | AUC [2] | IC50 [2]
26 | HuO-3N1 (osteosarcoma, adherent) | 0.935 | > 2000 nM | 0.982 | > 5000 nM
27 | HuP-T3 (pancreas, adherent) | 0.981 | > 2000 nM | 0.976 | > 5000 nM
28 | HuP-T4 (pancreas, adherent) | 0.984 | > 2000 nM | 0.984 | > 5000 nM
29 | IA-LM (large cell lung carcinoma, adherent) | 0.971 | > 2000 nM | 0.96 | > 5000 nM
30 | IGR-1 (melanoma, adherent) | 0.99 | > 2000 nM | 0.931 | > 5000 nM
31 | IGROV-1 (ovary, adherent) | 0.871 | > 2000 nM | 0.977 | > 5000 nM
32 | IHH-4 (thyroid, semi-adherent) | 0.993 | > 2000 nM | 0.848 | 2650 nM
33 | IPC-298 (melanoma, adherent) | 0.982 | > 2000 nM | 0.961 | > 5000 nM
34 | JEG-3 (urogenital system, adherent) | 0.97 | > 2000 nM | 0.982 | > 5000 nM
35 | JEKO-1 (B-cell lymphoma, suspension) | 0.883 | 1990 nM | 0.853 | 3660 nM
36 | JHH-1 (liver, adherent) | 0.98 | > 2000 nM | 0.981 | > 5000 nM
37 | JHH-2 (liver, adherent) | 0.979 | > 2000 nM | 0.982 | > 5000 nM
38 | JHH-4 (liver, adherent) | 0.955 | > 2000 nM | 0.987 | > 5000 nM
39 | JHH-7 (liver, adherent) | 0.925 | > 2000 nM | 0.907 | > 5000 nM
40 | JHOS-2 (ovary, adherent) | 0.939 | > 2000 nM | 0.956 | > 5000 nM
41 | JHOS-3 (ovary, adherent) | 0.984 | > 2000 nM | 0.984 | > 5000 nM
42 | JHOS-4 (ovary, adherent) | 0.98 | > 2000 nM | 0.98 | > 5000 nM
43 | JHU-011 (head and neck, adherent) | 0.923 | > 2000 nM | 0.899 | > 5000 nM
44 | JHU-022 (head and neck, adherent) | 0.972 | > 2000 nM | 0.979 | > 5000 nM
45 | JHU-029 (head and neck, adherent) | 0.959 | > 2000 nM | 0.969 | > 5000 nM
46 | JIMT-1 (breast, adherent) | 0.97 | > 2000 nM | 0.921 | > 5000 nM
47 | Jurkat (T-cell leukaemia, suspension) | 0.992 | > 2000 nM | 0.952 | > 5000 nM
48 | K2 (melanoma, adherent) | 0.971 | > 2000 nM | 0.797 | 3180 nM
49 | KARPAS-620 (haematopoietic neoplasm, suspension) | 0.991 | > 2000 nM | 0.99 | > 5000 nM
50 | KARPAS-1106P (B-cell lymphoma, suspension) | 0.958 | > 2000 nM | 0.993 | > 5000 nM

Row | Cell Line | AUC [1] | IC50 [1] | AUC [2] | IC50 [2]
51 | KATOIII (stomach, semi-adherent) | 0.297 | 35.5 nM | 0.99 | > 5000 nM
52 | KLE (endometrium, adherent) | 0.978 | > 2000 nM | 0.978 | > 5000 nM
53 | KMH-2 (thyroid, adherent) | 0.987 | > 2000 nM | 0.934 | > 5000 nM
54 | KMRC-1 (kidney, adherent) | 0.949 | > 2000 nM | 0.987 | > 5000 nM
55 | KMRC-20 (kidney, adherent) | 0.972 | > 2000 nM | 0.988 | > 5000 nM
56 | KMS-11 (myeloma, suspension) | 0.981 | > 2000 nM | 0.977 | > 5000 nM
57 | KNS-62 (lung squamous cell carcinoma, adherent) | 0.977 | > 2000 nM | 0.868 | > 5000 nM
58 | KON (head and neck, adherent) | 0.921 | > 2000 nM | 0.912 | > 5000 nM
59 | KOPN-8 (B-cell leukaemia, suspension) | 0.988 | > 2000 nM | 0.951 | > 5000 nM
60 | KP-1N (pancreas, adherent) | 0.982 | > 2000 nM | 0.956 | > 5000 nM
61 | KP-2 (pancreas, adherent) | 0.953 | > 2000 nM | 0.943 | > 5000 nM
62 | KP-3 (pancreas, adherent) | 0.984 | > 2000 nM | 0.984 | > 5000 nM
63 | KU-19-19 (bladder, adherent) | 0.983 | > 2000 nM | 0.97 | > 5000 nM
64 | KYAE-1 (oesophagus, suspension) | 0.969 | > 2000 nM | 0.985 | > 5000 nM
65 | KYSE-50 (oesophagus, adherent) | 0.987 | > 2000 nM | 0.99 | > 5000 nM
66 | KYSE-140 (oesophagus, adherent) | 0.984 | > 2000 nM | 0.968 | > 5000 nM
67 | KYSE-150 (oesophagus, adherent) | 0.98 | > 2000 nM | 0.99 | > 5000 nM
68 | KYSE-220 (oesophagus, adherent) | 0.986 | > 2000 nM | 0.986 | > 5000 nM
69 | KYSE-410 (oesophagus, adherent) | 0.98 | > 2000 nM | 0.971 | > 5000 nM
70 | KYSE-450 (oesophagus, adherent) | 0.976 | > 2000 nM | 0.988 | > 5000 nM
71 | KYSE-510 (oesophagus, adherent) | 0.981 | > 2000 nM | 0.99 | > 5000 nM
72 | KYSE-520 (oesophagus, adherent) | 0.932 | > 2000 nM | 0.978 | > 5000 nM
73 | LC-1-sq (lung squamous cell carcinoma, adherent) | 0.956 | > 2000 nM | 0.975 | > 5000 nM
74 | LCLC-97TM1 (large cell lung carcinoma, adherent) | 0.927 | > 2000 nM | 0.888 | > 5000 nM
75 | LCLC-103H (large cell lung carcinoma, adherent) | 0.962 | > 2000 nM | 0.98 | > 5000 nM

Row | Cell Line | AUC [1] | IC50 [1] | AUC [2] | IC50 [2]
76 | LK-2 (lung squamous cell carcinoma, adherent) | 0.866 | 1620 nM | 0.988 | > 5000 nM
77 | LN-18 (glioma, adherent) | 0.994 | > 2000 nM | 0.994 | > 5000 nM
78 | LN-229 (glioma, adherent) | 0.978 | > 2000 nM | 0.986 | > 5000 nM
79 | LN-405 (glioma, adherent) | 0.975 | > 2000 nM | 0.96 | > 5000 nM
80 | LNZTA3WT4 (glioma, adherent) | 0.937 | > 2000 nM | 0.989 | > 5000 nM
81 | LOU-NH91 (lung squamous cell carcinoma, adherent) | 0.986 | > 2000 nM | 0.986 | > 5000 nM
82 | LS-180 (large intestine, adherent) | 0.936 | > 2000 nM | 0.93 | > 5000 nM
83 | LU-135 (small cell lung carcinoma, suspension) | 0.939 | > 2000 nM | 0.992 | > 5000 nM
84 | LoVo (large intestine, adherent) | 0.977 | > 2000 nM | 0.971 | > 5000 nM
85 | M059J (glioma, adherent) | 0.974 | > 2000 nM | 0.985 | > 5000 nM
86 | MC-IXC (neuroblastoma, adherent) | 0.996 | > 2000 nM | 0.995 | > 5000 nM
87 | MCF7 (breast, adherent) | 0.953 | > 2000 nM | 0.961 | > 5000 nM
88 | MDA-MB-157 (breast, adherent) | 0.967 | > 2000 nM | 0.988 | > 5000 nM
89 | MDA-MB-231 (breast, adherent) | 0.97 | > 2000 nM | 0.949 | > 5000 nM
90 | MDA-MB-330 (breast, adherent) | 0.986 | > 2000 nM | 0.963 | > 5000 nM
91 | MDA-MB-361 (breast, adherent) | 0.989 | > 2000 nM | 0.989 | > 5000 nM
92 | MDA-MB-415 (breast, adherent) | 0.972 | > 2000 nM | 0.983 | > 5000 nM
93 | MDA-MB-436 (breast, adherent) | 0.983 | > 2000 nM | 0.984 | > 5000 nM
94 | MDA-MB-453 (breast, adherent) | 0.949 | > 2000 nM | 0.976 | > 5000 nM
95 | MDA-MB-468 (breast, adherent) | 0.984 | > 2000 nM | 0.975 | > 5000 nM
96 | ME-180 (cervix, adherent) | 0.986 | > 2000 nM | 0.986 | > 5000 nM
97 | MEL-HO (melanoma, adherent) | 0.961 | > 2000 nM | 0.311 | 91.4 nM
98 | MEL-JUSO (melanoma, adherent) | 0.984 | > 2000 nM | 0.984 | > 5000 nM
99 | MES-SA (uterus, adherent) | 0.966 | > 2000 nM | 0.988 | > 5000 nM
